Substitutions are numbered along the chain they refer to. In names and notes the source's numbering stands. Results are given in words; binding and its absence hold for the method and conditions named. Some results given as binding are weak or reduced against the parent protein; the word gives no strength. Sequences can lack the tags named with a protein.

Common to all, as to test: LacI/LacO tethering and recruitment assay (immunofluorescence); bait fused to GFP-LacI tethered to chromosomal LacO arrays in human U2OS cells; HA- or V5-tagged prey transiently co-expressed; IF 48 h after transfection, prey intensity at the LacO spot or % of cells; no third Drosophila centromere protein co-expressed
Assay [1] has as its target CAL1-GFP-LacI (Drosophila melanogaster) (UniProt Q9VEN2).
For assay [2], the target named is T1, GFP-LacI-dCENP-C (Drosophila melanogaster) (UniProt Q9VHP9).
T1 sequence: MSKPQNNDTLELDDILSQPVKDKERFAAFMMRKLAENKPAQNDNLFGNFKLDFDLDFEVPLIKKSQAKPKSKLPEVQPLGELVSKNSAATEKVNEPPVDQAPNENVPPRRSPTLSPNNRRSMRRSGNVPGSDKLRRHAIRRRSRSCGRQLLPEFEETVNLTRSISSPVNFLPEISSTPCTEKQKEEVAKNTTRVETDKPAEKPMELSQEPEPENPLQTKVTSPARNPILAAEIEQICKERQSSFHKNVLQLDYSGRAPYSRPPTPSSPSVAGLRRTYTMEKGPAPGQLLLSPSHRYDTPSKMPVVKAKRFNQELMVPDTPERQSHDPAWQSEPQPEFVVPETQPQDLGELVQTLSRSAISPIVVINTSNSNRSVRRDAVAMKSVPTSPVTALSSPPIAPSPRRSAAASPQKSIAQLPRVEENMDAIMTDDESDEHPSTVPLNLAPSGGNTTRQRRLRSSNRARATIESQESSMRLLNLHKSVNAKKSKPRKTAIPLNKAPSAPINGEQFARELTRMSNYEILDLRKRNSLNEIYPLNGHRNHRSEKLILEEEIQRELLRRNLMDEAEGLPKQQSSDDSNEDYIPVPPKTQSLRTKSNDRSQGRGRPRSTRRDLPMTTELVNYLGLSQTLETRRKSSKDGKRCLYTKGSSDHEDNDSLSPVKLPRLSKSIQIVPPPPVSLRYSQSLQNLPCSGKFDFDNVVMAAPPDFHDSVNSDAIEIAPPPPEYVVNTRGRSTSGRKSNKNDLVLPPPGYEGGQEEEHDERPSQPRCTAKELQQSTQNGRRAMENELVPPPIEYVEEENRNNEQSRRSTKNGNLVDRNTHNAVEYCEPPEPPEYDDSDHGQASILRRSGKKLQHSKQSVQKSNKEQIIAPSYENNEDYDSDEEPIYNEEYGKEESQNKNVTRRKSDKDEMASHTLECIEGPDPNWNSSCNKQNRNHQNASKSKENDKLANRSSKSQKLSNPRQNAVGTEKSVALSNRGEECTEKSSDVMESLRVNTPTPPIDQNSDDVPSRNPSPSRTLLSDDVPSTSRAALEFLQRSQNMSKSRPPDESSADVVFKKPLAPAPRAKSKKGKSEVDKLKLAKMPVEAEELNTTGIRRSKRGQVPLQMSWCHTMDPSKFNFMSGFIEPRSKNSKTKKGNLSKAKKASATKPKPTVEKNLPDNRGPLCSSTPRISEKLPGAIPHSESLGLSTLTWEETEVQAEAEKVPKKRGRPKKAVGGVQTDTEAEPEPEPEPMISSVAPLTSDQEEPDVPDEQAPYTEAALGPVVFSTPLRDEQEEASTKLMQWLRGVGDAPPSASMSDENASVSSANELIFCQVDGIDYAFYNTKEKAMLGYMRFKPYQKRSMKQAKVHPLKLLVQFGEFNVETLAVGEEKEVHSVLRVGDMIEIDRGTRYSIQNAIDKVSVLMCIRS

The target in assay [3] is T2, CAL1-GFP-LacI (Drosophila melanogaster), Q9VEN2.
T2 chain: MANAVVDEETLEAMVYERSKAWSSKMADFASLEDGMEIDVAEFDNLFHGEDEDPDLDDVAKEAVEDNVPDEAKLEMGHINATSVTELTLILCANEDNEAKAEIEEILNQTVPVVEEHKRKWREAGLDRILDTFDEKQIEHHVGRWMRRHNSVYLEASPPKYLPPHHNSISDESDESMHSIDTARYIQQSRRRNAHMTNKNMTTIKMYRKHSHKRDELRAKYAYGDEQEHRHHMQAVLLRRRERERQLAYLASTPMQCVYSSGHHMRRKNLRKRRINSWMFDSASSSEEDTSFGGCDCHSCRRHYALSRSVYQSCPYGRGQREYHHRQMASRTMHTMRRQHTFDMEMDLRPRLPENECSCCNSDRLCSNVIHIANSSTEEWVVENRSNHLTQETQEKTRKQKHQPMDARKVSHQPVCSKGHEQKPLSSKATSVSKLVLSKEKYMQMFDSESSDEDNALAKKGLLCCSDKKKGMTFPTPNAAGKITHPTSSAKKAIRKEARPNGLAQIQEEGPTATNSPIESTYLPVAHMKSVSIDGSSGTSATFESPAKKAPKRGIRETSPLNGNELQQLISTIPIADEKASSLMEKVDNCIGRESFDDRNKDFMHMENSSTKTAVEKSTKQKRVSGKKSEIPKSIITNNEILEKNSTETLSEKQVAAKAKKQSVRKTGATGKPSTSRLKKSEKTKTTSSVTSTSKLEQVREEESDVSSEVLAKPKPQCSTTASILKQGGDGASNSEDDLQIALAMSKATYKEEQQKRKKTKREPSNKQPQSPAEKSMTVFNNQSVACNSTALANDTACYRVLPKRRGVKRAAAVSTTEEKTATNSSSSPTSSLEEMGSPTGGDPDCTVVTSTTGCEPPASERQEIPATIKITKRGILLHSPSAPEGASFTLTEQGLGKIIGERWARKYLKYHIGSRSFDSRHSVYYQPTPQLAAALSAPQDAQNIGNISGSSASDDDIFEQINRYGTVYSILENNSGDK
The settings on record: remark: other sources report otherwise.

B1: HA-dCENP-C(1264-1411) (domain or fragment, UniProt Q9VHP9 1264-1411)
chain: GPVVFSTPLRDEQEEASTKLMQWLRGVGDAPPSASMSDENASVSSANELIFCQVDGIDYAFYNTKEKAMLGYMRFKPYQKRSMKQAKVHPLKLLVQFGEFNVETLAVGEEKEVHSVLRVGDMIEIDRGTRYSIQNAIDKVSVLMCIRS
As to B1, the binding result in assay [1] and in assay [2] was “binds” throughout.

B2: HA-dCENP-C(1264-1411) L1357E-L1406E (domain or fragment, UniProt Q9VHP9 1264-1411)
chain: B1 chain with L94E, L143E
On to B2, for which the binding result in assay [1] and in assay [2] was “no binding” in each case.

B3: CAL1-HA, Q9VEN2 1-979 (protein)
chain: T2 chain
As for B3, the binding result in assay [3] is “binds”.

B4: HA-dCENP-C L1357E-L1406E (protein, UniProt Q9VHP9 1-1411)
chain: T1 sequence with L1357E, L1406E
With B4, the binding result in assay [1] and in assay [2] was “no binding” in each case.

B5: HA-dCENP-C(1009-1411) (domain or fragment, UniProt Q9VHP9 1009-1411)
chain: VPSRNPSPSRTLLSDDVPSTSRAALEFLQRSQNMSKSRPPDESSADVVFKKPLAPAPRAKSKKGKSEVDKLKLAKMPVEAEELNTTGIRRSKRGQVPLQMSWCHTMDPSKFNFMSGFIEPRSKNSKTKKGNLSKAKKASATKPKPTVEKNLPDNRGPLCSSTPRISEKLPGAIPHSESLGLSTLTWEETEVQAEAEKVPKKRGRPKKAVGGVQTDTEAEPEPEPEPMISSVAPLTSDQEEPDVPDEQAPYTEAALGPVVFSTPLRDEQEEASTKLMQWLRGVGDAPPSASMSDENASVSSANELIFCQVDGIDYAFYNTKEKAMLGYMRFKPYQKRSMKQAKVHPLKLLVQFGEFNVETLAVGEEKEVHSVLRVGDMIEIDRGTRYSIQNAIDKVSVLMCIRS
B5: in assay [2], the binding result is listed as “binds”.

The values are drawn from article PMC6900781.
